To fix the notation:
B1: CPEB3 Ribozyme (parent)
chain: UAACAGGGGGCCACAGCAGAAGCGUUCACGUCGCAGCCCCUGUCAGAUUCUGGUGAAUCUGCGAAUUCUGCUGUAUAUCUC

Read counts are not given, so values of variants with three or more changes are uncertain.

Variants of B1 are the subject of the data set. Description: self-cleavage, relative activity (ratio to wild type); higher = more cleavage; in vitro, sequencing. The procedure, abridged:
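Libraries of CPEB3 self-cleaving ribozyme mutants came from rounds of error-prone PCR and carried barcodes, which DNA sequencing matched to variants. In vitro transcription used T7 RNA polymerase at 37°C for 5 hours, with a further 15 min in DNase I before EDTA stopped the reaction; the ribozymes cleaved during both steps. The RNA was reverse transcribed with template switching and sequenced on Illumina. Relative activity is the cleaved/total read fraction of a variant divided by that of the unmutated ribozyme, averaged over three batches with at least 5 reads.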
As for A3U A56G C79U, the self-cleavage turned out to be 1.19.
The value for A3U C14A U72C was 1.24.
The value for A3U U26C U41C was 0.65; that for A3U U69A A77G was 1.06; that for A3U C11G U41C U78C was 0.58.
C4G A20G U49A: the self-cleavage was 0.57.
As for A3U U51A A64G, the self-cleavage is 0.96.
Consider A3U U25C A45G U74A, for which the self-cleavage turned out to be 0.5.
The value for C4A A21G G24A U26C U69A U72G was 0.07.
On to C4G G9C U25C U43C U67A, for which the self-cleavage came out at 0.06.
With A3U C12U A20G C32G A77U, the self-cleavage worked out at 0.07.
The value for C4G A13G A45U U67A was 0.22; that for C4A A13U U43C U58C A64G A65G A77G was 0.18.
Regarding A3U U54A U76C, the self-cleavage amounted to 1.21.
Consider A3U C12U A13U G24C U43C, for which the self-cleavage was found to be 0.38.
The value for A3U C11G A18C A35U G61C was 0.06; that for A3U C17A U31C C62U was 0.32; that for A3U G6U G36U U80C was 0.09.
For A3U U60C A64U, the self-cleavage came out at 0.16.
The value for A3U U60C A64G was 0.29; that for C4G C11U U41A U49A U78C was 0.06; that for C4G C29U U80C was 0.71.
Consider A3U C11A A35U A56G, for which the self-cleavage came out at 0.38.
As to C4U A5G U43C, the self-cleavage is 0.55.
Regarding A3U U66C U69C, the self-cleavage turned out to be 0.19.
The value for A3U G33A U49C G55A U66C was 0.07.
On to A3U C4G A20G U26C A56G U67C, for which the self-cleavage came to 0.22.
The value for A3U G7U U31C was 0.59; that for A3U C11G A13G U41G was 0.07; that for A3U A47U C50A U60C A65U was 0.22.
A3U U54A G63C U78A: the self-cleavage is 1.2.
The value for C4A A20G A56G U69C U72C U78C was 0.18; that for A3U U43C A47G U48A U78C was 0.18.
Regarding C4U A5G U66C, the self-cleavage came out at 0.42.
The value for A3U U26C U49C was 0.61.
Turning to A3U U49C U54C, the self-cleavage turned out to be 0.51.
For the variant C4A A18G U58C U80C, the self-cleavage worked out at 0.3.
With C4A U31C U43C, the self-cleavage was 0.38.
As for C4U A13G U69A, the self-cleavage was determined as 0.82.
The value for A3U G24A G61A was 0.34; that for A3U U67C U78C was 0.33; that for A3U U26G C40U U54C U74C was 0.13.
The value for A3U G9A A45G A65G was 0.08; that for A3U C29G U43C U69C was 0.21.
The value for A3U C29U G52A A64G U67C U78C was 0.13; that for C4A A21G G73A was 1.12; that for A3U U41C A45G U58C U80C was 0.45.
Consider A3U C11G A35U A47U A57U A75U, for which the self-cleavage was 0.32.
As to A3U A56G A57G U67A A77U, the self-cleavage came to 0.09.
The value for C4G A5G U48C U60C U67C was 0.19; that for A3U A57G C62U was 0.1.
Consider A3U U25C A35G, for which the self-cleavage was determined as 0.38.
A3U G8U A15U U43C A64U: the self-cleavage was found to be 0.21.
The value for A3U U48C U49C U74C was 0.32; that for A3U U25C U31A G52A A56U was 0.1; that for A3U U69C U76A was 0.83.
The value for A3U C39U A64U U69C U72A was 0.07; that for A3U U51C C79U was 1.22; that for C4A C12U A13U U25C G42A U72C was 0.07.
Consider A3U G10U A18G A20U U41A U69C, for which the self-cleavage amounted to 0.05.
The value for A3U C29G U41G U49C was 0.11; that for C4U A13G A45U U60C U69C was 0.25.
Regarding C4G G6A U51C, the self-cleavage worked out at 0.54.
For the variant A3U C59U U60A, the self-cleavage is 0.49.
Regarding C4U A13G U31A G36A A47U, the self-cleavage stood at 0.24.
For A3U G42U A56G A64U, the self-cleavage was found to be 0.34.
In the case of A3U C17U C23U A28U U31A, the self-cleavage was determined as 0.3.
The value for A3U G9C U41C U49A A56G A65G was 0.09.
The value for A3U U54A A56G was 0.71.
In the case of A3U G6A U25C A45G, the self-cleavage amounted to 0.39.
The value for C4A C12G U41A A45G was 0.15; that for C4A U26A G36A U43C U69A was 0.08.
The value for A3U C38A A57G U60C was 0.11.
As to A3U C14U U26C U54C U67C, the self-cleavage was found to be 0.04.
The value for C4U A5G G6A A13U U60A A64G was 0.51.
Regarding A3U C4U A20G C23U U60C, the self-cleavage was determined as 0.21.
For C4A A5G U43C U54G A57G U80C, the self-cleavage was 0.1.
The value for A3U U26C U72C was 0.21.
The value for A3U G10U G24C U31C was 0.26.
The value for C4G G10A C12U A35U was 0.08; that for C4A C40U U74C was 1.14.
As for A3U C29A U41A U58C, the self-cleavage turned out to be 0.08.
The value for A3U U51A U67C U72C A75G was 0.4; that for A3U C40A A75U U78C was 0.15.

(Values after the RNAGym collection of RNA variant scans (doi:10.1093/nar/gkz1192).)
